B1: LINE1-mini (parent)
chain: GGCAGAGCUCAACACAGCGUGGCAAAGUGGCUGUGGCUAGACUGCC

Read counts are not given, so values of variants with three or more changes are uncertain.

The variants in this data set derive from B1. Put plainly: self-cleavage, relative activity (ratio to wild type); higher = more cleavage; in vitro, sequencing; the parent is a self-cleaving ribozyme.
As to G1A C10G G19U U32G C45G, the self-cleavage was found to be 0.01. As for G1A A26C G36U, the figure is 0.03; as for G1A G7A U9G G17U U38G, 0.08. As to G1A G2C U20A U32A, the self-cleavage worked out at 0.01.

Consider G1A G2A A12C G30A G36U A39C G44C, for which the self-cleavage was found to be 0.03. With G1A C8G G17A U34C U38A, the self-cleavage was 0.09. As for G1A G2U G17A C31G, the figure is 0.12; as for G1A C37G G40C, 0.02; as for G1A G2A G29C A39U, 0.05. As for G1A C10U A39U U43A C46A, the figure is 0; as for G1A G2C C10U A11G A14G G33C, 0.01; as for G1A G2U C8U G22A, 0.13. As for G1A G2C C3A A6U G36U, the figure is 0.55; as for G1A G2C G5C A24U U28G G36C, 0; as for G1A C18A C46G, 2.5. As to G1A G21A G22A C31A, the self-cleavage came to 0.07. As for G1A G2A C37U C45G, the figure is 0.17; as for G1A C10U A14G C23U A26G G27A, 0.91; as for G1A C8G C15A G21C, 0.32. As for G1A C23G A26U C46A, the figure is 0.88. For the variant G1A G5A A24G G33C U43A, the self-cleavage was 0.05. As for G1A C8U C15G G17A, the figure is 0.34; as for G1A G2A A4C A14U G22A, 0.32; as for G1A C10G C18U, 0.29. As for G1A C15A G17A, the figure is 0.02. As for G1A G2A A26C C31G, the figure is 0.14. With G1A G7U C15G G22U A26C, the self-cleavage is 1.59. As for G1A C18A G36A, the figure is 0.9; as for G1A C23U G29A G44U, 0.23.

Turning to G1A G7A A11G A25U G30C, the self-cleavage came to 0.05. As for G1A A24U G44U, the figure is 0.04; as for G1A G2A C10A A14U U38A A39C G44U, 0.49; as for G1A G19U G21U C23U G40A C42U, 0. As for G1A G7C C18U A26C G27C, the figure is 0.69; as for G1A C13U G21C, 0.22. As for G1A G5U G40U, the figure is 0.06; as for G1A G19A G40U C42U, 0.06. For the variant G1A G7U U20A C31G G40U, the self-cleavage came out at 0.14.

Regarding G1A C13G A26U G33A, the self-cleavage was 0.07.

On to G1A C10U G29A C45G, for which the self-cleavage is 0.16. As for G1A C8U A16U G30U C42U, the figure is 0.25; as for G1A C18U U20C, 0.41; as for G1A G2U C13U A39G, 0.02. As for G1A C10G G19U U20C G22C U34C G40C, the figure is 0.02; as for G1A A26C G30C, 1.02. As for G1A A26U G29U G30A G36U, the figure is 0.06; as for G1A G5C C8U G17U, 0.16; as for G1A C3A C10A G17U G21C A26C, 0.34. Take G1A C3G G5C A6G A25U U38C: the self-cleavage stood at 0.07.

For G1A C23U U34G, the self-cleavage amounted to 0.09. As for G1A G2U C13G U20G G27U U28A, the figure is 0.12. As for G1A G5A G33U G35A, the figure is 0.17. Regarding G1A G19U G27A C31G, the self-cleavage was 0.04. As for G1A C8A A25U U32A C37G, the figure is 0.3; as for G1A G7U C15A C45U, 0.35; as for G1A C3U C18G G22A A25C G33U C42U U43C, 0.07. As for G1A C15U G19A A26C G35A, the figure is 0.08; as for G1A C3G A16C G30C, 0.4. As for G1A G5A C18U, the figure is 0.28. As to G1A C10A U28C, the self-cleavage turned out to be 0.04. As for G1A C10G A16C G22C C23A G27A, the figure is 0.08; as for G1A C3U G33U, 0.58; as for G1A C3U A12U C23A C46U, 0.32.

On to G1A C18G G21U C23U G30C C31U U38G A39C C46U, for which the self-cleavage amounted to 0.15.

G1A C10A A14G C18G G19C: the self-cleavage came to 0.01. Consider G1A C10G G19A C45U, for which the self-cleavage is 0.22. Turning to G1A G7C G33A C46A, the self-cleavage is 0.17. As for G1A G19C G27U U32A, the figure is 0.07. For G1A C3U C8A G19U G36A, the self-cleavage amounted to 1. As for G1A C8G A26C G30A G36A, the figure is 0.73; as for G1A C8A C45U, 0.63; as for G1A C8A A11U A39C G40A, 0.03. As for G1A C15U A26C U43A, the figure is 0.02; as for G1A C10G C13U, 0.1.

Turning to G1A C37U A41C, the self-cleavage came out at 0. On to G1A G19U C23U G30A U38G A41U U43G, for which the self-cleavage was 0.06. Consider G1A G2C G44U, for which the self-cleavage was determined as 0.05. As to G1A C8A A24U, the self-cleavage came out at 0.63. As for G1A G21C G30U, the figure is 0.23; as for G1A C31A G33U, 0.09; as for G1A G19C G33U, 0.13.

With G1A G7C C8U U43C, the self-cleavage was 0.29. As for G1A G5U A24C U38A, the figure is 0.02; as for G1A C8A A25C G36U C37A, 0.38. As for G1A G5C U43A, the figure is 0.06.

On to G1A C13G G21U, for which the self-cleavage came out at 0.05. As for G1A C23U A25G G36U, the figure is 0.21; as for G1A G19C G27A C42A G44C, 0.05. Turning to G1A G2A G17U G29C, the self-cleavage came to 0.1.

On to G1A G7C U32C, for which the self-cleavage is 0.47.

Regarding G1A C13A A39G, the self-cleavage was 0.11.

As to G1A G2C C13G, the self-cleavage was 0.1. As for G1A C13A G21U, the figure is 0.09. As for G1A C18U U32A, the figure is 0.08. As for G1A C8G C15A G17U, the figure is 0.15; as for G1A G2C G29A G35C C46U, 0.13; as for G1A C15U C18A G27A C46U, 0.16. For the variant G1A G5A U38C C46A, the self-cleavage came to 0.1. As for G1A C8U C10G, the figure is 0.04; as for G1A A25C A39U, 0.22. As for G1A C10A C13U A16U G21A A26G G27U C37U, the figure is 0.05. As for G1A A25G G29C, the figure is 2; as for G1A C3G G7A, 0.58.

As to G1A G2A A24U C37G A41U, the self-cleavage was 0.57. Consider G1A G5A G7A C8A, for which the self-cleavage came to 1.77. Turning to G1A G17C C18A U20G, the self-cleavage was 0.09. As for G1A C10G U20A C46U, the figure is 0.01; as for G1A C13U A14C, 0.07; as for G1A G5A A14C A24U G30A, 0.14. As for G1A G2A A6U U38A, the figure is 2.06. Take G1A C13A A25C: the self-cleavage stood at 0.06.

In the case of G1A C8U U34C, the self-cleavage was 0.19.

Turning to G1A C3G U20G A41G C42U, the self-cleavage was found to be 0.29. As for G1A G2C G5U A16C U32A U43A C45A, the figure is 0.01. As for G1A G5U G19A C31G C42G, the figure is 0.02; as for G1A C10G C37G, 0.02. As for G1A G2U C10U C31A, the figure is 0.05; as for G1A G7C U43A, 0.37. Turning to G1A G17A U28A C45U, the self-cleavage was determined as 0.09. As for G1A C10A G27C U38A, the figure is 1.18. As to G1A A24C G27U, the self-cleavage stood at 0.19.

Regarding G1A C31G C45A, the self-cleavage was determined as 0.01. As for G1A C3U G5U C8U U9G C13U U28A G30A G44C, the figure is 0.27; as for G1A C8U A14G, 0.47; as for G1A C8G A14G U32C G40C, 0.02. As for G1A G5U U20G G27A, the figure is 0.24. As for G1A G19U G30A, the figure is 0.56; as for G1A C3U G21A G30U U32A, 0.1. Take G1A G7U G30A: the self-cleavage is 0.07. Take G1A G7U G22C A26U: the self-cleavage was found to be 0.35. As for G1A C3U A11G A14C A26G, the figure is 0.05; as for G1A C15G U20C A24G, 0.03; as for G1A G2C G22A U38G A39U G40C C45G, 0.02. As for G1A G17U A26G, the figure is 0.03.

On to G1A C13A A26C, for which the self-cleavage is 0.13.

In the case of G1A A25U A26G G44C, the self-cleavage stood at 0.06.

G1A G7C G19U C31G U34G C46A: the self-cleavage turned out to be 0.13. Take G1A C10A A14C C15U G22C G27U G29A U34C: the self-cleavage is 0.02. As for G1A C3A U9A, the figure is 2.79; as for G1A G5U C18G G33A C46U, 0.07; as for G1A C3U C8U G27U G29U C42A, 0.55. As for G1A C18A C23U, the figure is 2.3; as for G1A G5A G19C G27C C46G, 0.14. As for G1A C31G G40C, the figure is 0.09; as for G1A G21C G22C, 0.32. As for G1A G2A C8A C18A U20A A24U, the self-cleavage was found to be 0.15. G1A A24G U38A: the self-cleavage was 0.06. As for G1A G17A G21A U38A, the figure is 0.11; as for G1A A24G C45G, 0.11.

Turning to G1A C10A G22C C42U, the self-cleavage was 0.1.

For G1A C3U C10A G17C G21C G29U G35C, the self-cleavage was 0.04. As for G1A C15A U32A U34G, the figure is 0.05; as for G1A C13G C18G, 0.03; as for G1A A25U U28G, 0.07. Turning to G1A C10A U38A, the self-cleavage was determined as 0.03. On to G1A G5A G7A, for which the self-cleavage stood at 2.7.

As for G1A C10A G17U, the self-cleavage came to 0.04.

Regarding G1A A24U G33C C42A C46A, the self-cleavage worked out at 0.04.

On to G1A C13G C23G C37U C45G, for which the self-cleavage came to 0.14. As for G1A C13G U34A G35C, the figure is 0.71. With G1A G2C A6C A11U G30U U34G A41U, the self-cleavage worked out at 0. As for G1A G5A A16U A26U U43C, the figure is 0.09; as for G1A G5A G22C A39C, 0.2.

As for G1A G7U A24U G33U, the self-cleavage was determined as 0.88.

As for G1A C3G A11U G19C G27A C31A, the self-cleavage was 0.02. As for G1A C18G G27A C42U, the figure is 0.02; as for G1A G17A U20A G33C G35U C37G A41G, 0.

Source of the values: the RNAGym collection of RNA variant scans (doi:10.7554/elife.90254).
